Measurements published in PubChem BioAssay (NCATS).
Where “and” joins values, the source holds several entries; their conditions need not be identical. Equal values may be shown once. This list was built around the results that the source calls inconclusive (neither active nor inactive); the mix of calls is not that of the screen. For some assays here: A potency beside an inconclusive call is a rough fit, not a confirmed value. For some assays here: “Side channel” marks fits to a control or component signal instead of the main read-out. More than one record can exist for a structure, and the calls need not agree. Calls of active or inactive are those of the source. Unless noted, calls come from the whole dose curve; as a rule, active = well fitted curve in the direction sought with a large enough effect; inconclusive = small, poorly fitted or top-dose-only effect, or another doubt; inactive = no such curve, though single readings can be large; an effect the other way counts as inactive or inconclusive.

Legend:
[1] = qHTS Assay for Identifying Gametocytocidal Compounds (AID 743244); note: potency is the fitted concentration of half-maximal effect;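 for max response: % is set by controls: 0 for no effect and ±100 for the full control effect; actives lower the fluorescent signal which means gametocytes are killed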; conditions: P. falciparum 3D7 stage III-V gametocytes, alamarBlue, 72 h; max response: stronger effect = lower value
Procedure, shortened: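 Using 20,000 stage III–V 3D7 gametocytes per well, compounds were incubated 72 h under 37 °C/5% CO2. Viability was then assessed by 24 h alamarBlue reduction, measured fluorometrically at 525/598 nm.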

[2] = qHTS assay to identify small molecule inhibitors of chordoma cells - UCH-1 (AID 1259355); note: nearly all actives have a fitted effect of over 55% in size; note: potency is the fitted concentration of half-maximal effect; series mostly up to about 46 µM
Procedure, shortened: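 A 48hr growth-inhibition format: each drug tested at 15 concentrations together with added auranofin, camptothecin, doxorubicin, rubitecan and topotecan, with cell viability quantified as CellTiter-Glo luminescence.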

[3] = P-glycoprotein substrates identified in KB-8-5-11 adenocarcinoma cell line, qHTS therapeutic library screen (AID 1346987); note: nearly all actives have a fitted effect of over 65% in size; note: potency is the fitted concentration of half-maximal effect
Procedure, shortened: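 Human cervical adenocarcinoma KB-8-5-11 cells, selected in colchicine to over-express P-gp and assayed without it, were exposed for 72 h to titrated compounds. An ATP-based luminescent viability signal gave AC50.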

[4] = NS1 protein of Zika virus - qHTS assay to identify small molecule inhibitors in human HEK 293 cells (AID 1347053); note: nearly all actives have a fitted effect of over 55% in size; note: potency is the fitted concentration of half-maximal effect
Procedure, shortened: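 Readout was TR-FRET using paired anti-NS1 antibodies after 24 h infection of HEK 293 cells with ZIKV MR766 (MOI = 0.5). Compound preceded virus by 1 h; reduced signal reflects lower NS1 expression.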

[5] = molecular target: Tyrosine-protein phosphatase non-receptor type substrate 1 (Homo sapiens) + Leukocyte surface antigen CD47 (Homo sapiens) (UniProt P78324+Q08722); assay: CD47-SIRPalpha protein protein interaction - HTRF assay qHTS validation (AID 1347058; active = well fitted curve in the direction sought with a large enough effect in the signal ratio, not every such curve was filed as active; inconclusive = small, poorly fitted or top-dose-only effect, or effect the other way, or a change in a side signal; inactive = no such curve, though single readings can be large or run the other way; the % refers to the signal ratio; note: potency is the fitted concentration of half-maximal effect)
Chain of UniProt P78324 (P78324 whole entry, looked up, the tested form may be a part): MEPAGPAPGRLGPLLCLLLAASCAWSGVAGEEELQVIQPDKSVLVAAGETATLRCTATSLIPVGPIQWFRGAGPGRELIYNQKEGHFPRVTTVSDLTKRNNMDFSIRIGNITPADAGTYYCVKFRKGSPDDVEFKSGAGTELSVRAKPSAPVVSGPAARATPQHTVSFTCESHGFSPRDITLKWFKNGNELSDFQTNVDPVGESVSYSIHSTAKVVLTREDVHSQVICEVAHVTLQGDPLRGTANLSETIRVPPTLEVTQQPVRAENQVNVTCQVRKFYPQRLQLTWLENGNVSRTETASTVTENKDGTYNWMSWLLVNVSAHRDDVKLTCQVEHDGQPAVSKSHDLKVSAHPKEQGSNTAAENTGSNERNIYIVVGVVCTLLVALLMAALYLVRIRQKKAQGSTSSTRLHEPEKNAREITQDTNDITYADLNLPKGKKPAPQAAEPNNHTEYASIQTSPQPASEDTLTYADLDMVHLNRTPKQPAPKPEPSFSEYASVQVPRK
Chain of UniProt P78324 (Q08722 whole entry, looked up, the tested form may be a part): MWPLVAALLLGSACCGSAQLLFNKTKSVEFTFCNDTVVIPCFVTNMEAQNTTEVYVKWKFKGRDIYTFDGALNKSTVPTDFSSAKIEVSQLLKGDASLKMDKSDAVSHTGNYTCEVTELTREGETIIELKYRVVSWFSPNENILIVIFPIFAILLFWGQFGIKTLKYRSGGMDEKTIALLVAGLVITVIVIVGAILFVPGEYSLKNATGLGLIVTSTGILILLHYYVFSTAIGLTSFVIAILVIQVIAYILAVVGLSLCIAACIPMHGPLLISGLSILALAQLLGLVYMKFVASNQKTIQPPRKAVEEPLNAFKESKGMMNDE
Procedure, shortened: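 Soluble extracellular domains (6His-CD47, Avi-tag-biotinylated SIRPalpha) in PBS pH 7.4 with 0.05% IGEPAL CA-630. Compounds were preincubated 30 min at RT with CD47 and anti-His-Eu, then SIRPalpha and SAV-XL665 were added. TR-FRET 665/615 ratio.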

[6] = qHTS assay for small molecule agonists of the antioxidant response element (ARE) signaling pathway measured by Nrf2-dependant transcriptional activity - cell viability counter screen (AID 720653; active = well fitted curve in the direction sought with a large enough effect in the repeat runs; inconclusive = weak or mixed curves; inactive = no such curve, though single readings can be large; an effect the other way counts as inactive or inconclusive; note: % is set by controls: 0 for no effect and ±100 for the full control effect); conditions: ARE-bla HepG2 viability, CellTiter-Glo ATP luminescence, 16 h; max response: stronger effect = lower value
Procedure, shortened: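 ARE-bla HepG2 cells (2,000/well) rested 5 hrs at 37C/5% CO2, then exposed to compounds in DMSO for 16 hrs. Viability was read in the same wells as intracellular ATP by luminescence, 30 min at room temperature after reagent addition.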

[7] = Natriuretic polypeptide receptor (hNpr1) antagonism - Pilot counterscreen GloSensor control cell line (AID 1347045; calls by dose curve; note: potency is the fitted concentration of half-maximal effect)
Procedure, shortened: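 The SNP-driven cGMP luminescence signal (50 uM, 20 min, room temperature) was measured in GloSensor HEK293 control cells. Compounds were tested as a LOPAC titration series and preincubated for 30-50 min.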

[8] = qHTS assay to identify small molecule inhibitors of chordoma cells - UCH-2 (AID 1259356); note: potency is the fitted concentration of half-maximal effect
[9] = molecular target: Atrial natriuretic peptide receptor 2 (Homo sapiens) (UniProt P20594); assay: Natriuretic polypeptide receptor (hNpr2) antagonism - Pilot subtype selectivity assay (AID 1347050; calls by dose curve; note: potency is the fitted concentration of half-maximal effect)
Chain of UniProt P20594 (P20594 whole entry, looked up): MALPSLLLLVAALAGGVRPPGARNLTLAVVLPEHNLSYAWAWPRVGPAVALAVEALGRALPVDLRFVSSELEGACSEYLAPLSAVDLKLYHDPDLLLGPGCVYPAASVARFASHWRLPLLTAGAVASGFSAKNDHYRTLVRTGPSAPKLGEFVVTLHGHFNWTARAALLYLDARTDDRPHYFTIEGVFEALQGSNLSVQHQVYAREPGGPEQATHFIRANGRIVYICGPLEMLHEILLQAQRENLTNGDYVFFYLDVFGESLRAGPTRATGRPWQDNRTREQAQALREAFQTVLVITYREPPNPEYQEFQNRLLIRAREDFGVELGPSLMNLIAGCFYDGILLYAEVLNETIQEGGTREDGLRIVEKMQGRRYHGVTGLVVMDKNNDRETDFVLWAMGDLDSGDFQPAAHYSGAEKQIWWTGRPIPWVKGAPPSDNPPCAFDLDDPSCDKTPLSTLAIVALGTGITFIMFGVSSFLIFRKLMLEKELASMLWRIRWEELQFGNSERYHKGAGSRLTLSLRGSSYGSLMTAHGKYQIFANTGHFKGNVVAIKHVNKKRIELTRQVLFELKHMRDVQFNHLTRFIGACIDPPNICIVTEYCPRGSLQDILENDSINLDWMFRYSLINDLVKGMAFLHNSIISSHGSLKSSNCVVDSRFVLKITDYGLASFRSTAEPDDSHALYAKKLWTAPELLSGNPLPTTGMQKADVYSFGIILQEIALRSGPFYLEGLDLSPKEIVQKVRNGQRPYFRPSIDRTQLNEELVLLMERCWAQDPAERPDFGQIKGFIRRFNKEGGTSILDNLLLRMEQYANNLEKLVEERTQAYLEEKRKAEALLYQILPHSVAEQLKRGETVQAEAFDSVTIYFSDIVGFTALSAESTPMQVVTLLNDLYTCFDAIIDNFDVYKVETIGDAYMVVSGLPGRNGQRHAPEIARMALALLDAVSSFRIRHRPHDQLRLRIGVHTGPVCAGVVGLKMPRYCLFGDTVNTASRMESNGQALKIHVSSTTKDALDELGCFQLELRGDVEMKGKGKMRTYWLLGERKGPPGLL
Procedure, shortened: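 Read-out: GloSensor luminescence (CCD imager), baseline vs post-stimulation. HEK293 cells expressing hNpr2; compounds pre-incubated 30-50 min at ambient temperature; hNppC 1 nM final, 20 min.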
Tags give direction and shape of the fitted curve.

Structure (SMILES): C=C(NC(=O)C(=C)NC(=O)c1csc(C2=N[C@@H]3c4csc(n4)[C@H]4NC(=O)c5csc(n5)[C@H]([C@](C)(O)[C@@H](C)O)NC(=O)[C@H]5CSC(=N5)C(=CC)NC(=O)C([C@@H](C)O)NC(=O)c5csc(n5)[C@]3(CC2)NC(=O)[C@H](C)NC(=O)C(=C)NC(=O)[C@H](C)NC(=O)C([C@@H](C)CC)NC2C=Cc3c([C@H](C)O)cc(nc3C2O)C(=O)O[C@@H]4C)n1)C(N)=O (some centres not stated)
- Potency [1]: active: 11.2 µM
- Potency [2]: inconclusive: 5.01 µM [cytotoxic, partial curve, poor fit]
- Potency [3]: inactive

Structure (SMILES): CN(C)c1ccc(C(=C2C=CC(=[N+](C)C)C=C2)c2ccc(N(C)C)cc2)cc1
- Potency [1]: active: 7.08 µM
- Potency [2]: active: 22.4 µM
- Potency [4]: active: 3.72 µM

Structure (SMILES): CCN(CC)C(C)CN1c2ccccc2Sc2ccccc21 (configuration not stated)
- Potency [2]: inconclusive: 0.0025 µM [cytotoxic, full curve, poor fit]
- Potency [5]: inconclusive: 18.5 µM [side channel, falling, partial curve]

Structure (SMILES): O=C(O)CNC(=O)c1ccccc1
- Potency [2]: inconclusive: 0.708 µM [rising, partial curve, poor fit]
- Potency [4]: inactive

Structure (SMILES): CCOc1ccc(NC(C)=O)cc1
- max response [6]: inactive: 3.98% and inactive: -0.784%
- Potency [2]: inactive

Structure (SMILES): CCCCCCCCCCCCCCCC[N+](C)(C)CCN(Cc1ccc(OC)cc1)c1ncccn1
- Potency [2]: inconclusive: 5.01 µM [cytotoxic, single point]
- Potency [4]: inconclusive: 35.5 µM [inhibitor, single point]

Structure (SMILES): NC(=O)N1c2ccccc2C=Cc2ccccc21
- Potency [2]: inconclusive: 12.6 µM [cytotoxic, single point]
- Potency [7]: inconclusive: 5.85 µM [inhibitor, single point]

Structure (SMILES): CCCCCN=C(N)N/N=C/c1c[nH]c2ccc(OC)cc12
- Potency [2]: inactive
- Potency [4]: inconclusive: 35.5 µM [inhibitor, single point]

Structure (SMILES): CCc1c(C)[nH]c2c1C(=O)C(CN1CCOCC1)CC2 (configuration not stated)
- Potency [2]: inconclusive: 4.47 µM [cytotoxic, full curve, poor fit]
- Potency [5]: inactive

Structure (SMILES): CC(=O)Oc1cccc(C)c1
- max response [1]: inactive: 19.2%
- Potency [2]: inactive

Structure (SMILES): CCc1ccc2c(c1)N(CC(C)CN(C)C)c1ccccc1S2 (configuration not stated)
- Potency [1]: inconclusive: 35.5 µM [inhibitor, partial curve]
- Potency [2]: inconclusive: 14.1 µM [cytotoxic, partial curve, poor fit]

Structure (SMILES): COc1cc2c(cc1O)CCN[C@]21CS[C@@H]2c3c(OC(C)=O)c(C)c4c(c3[C@H](COC1=O)N1[C@@H]2[C@H]2c3c(cc(C)c(OC)c3O)C[C@@H]([C@@H]1O)N2C)OCO4
- Potency [1]: inconclusive: 39.8 µM [inhibitor, partial curve, poor fit] and inconclusive: 100 µM [inhibitor, partial curve, poor fit]
- Potency [2]: inconclusive: 0.02 µM [cytotoxic, full curve]

Structure (SMILES): O=C(O)c1cc(=O)c2c3nc4ccccc4oc-3cc(=O)c2[nH]1
- max response [1]: inactive: -14.4%
- Potency [2]: inconclusive: 35.5 µM [cytotoxic, partial curve, poor fit]

Structure (SMILES): CCCCCCCCCCCCCCCC[N+](C)(C)CC
- Potency [8]: inconclusive: 29.1 µM [cytotoxic, single point]
- Potency [3]: inconclusive: 18.4 µM [inhibitor, single point]
- Potency [4]: inconclusive: 35.5 µM [inhibitor, single point]

Structure (SMILES): COc1cccc(CCc2ccccc2OCC(CN(C)C)OC(=O)CCC(=O)O)c1 (configuration not stated)
- Potency [8]: inconclusive: 29.1 µM [cytotoxic, single point]
- Potency [3]: inconclusive: 8.2 µM [inhibitor, partial curve]

Structure (SMILES): CC1CCc2c(N3CCC(O)CC3)c(F)cc3c(=O)c(C(=O)O)cn1c23 (configuration not stated)
- Potency [8]: inactive

Structure (SMILES): CCCCCCCCCCCC[n+]1ccc2ccccc2c1
- Potency [1]: active: 1.78 µM
- Potency [2]: inconclusive: 25.1 µM [cytotoxic, partial curve, poor fit]

Structure (SMILES): COc1ccc(-c2cc(C(F)F)nn2-c2ccc(S(N)(=O)=O)cc2)cc1F
- max response [1]: inactive: 25.1%
- Potency [2]: inactive

Structure (SMILES): CN1[C@@H]2CC[C@H]1CC(OC(=O)C(O)c1ccccc1)C2 (some centres not stated)
- Potency [3]: inactive

Structure (SMILES): OCCN1CCN(CCCN2c3ccccc3C=Cc3ccccc32)CC1
- Potency [1]: active: 11.2 µM
- Potency [8]: inconclusive: 23.1 µM [cytotoxic, partial curve]
- Potency [3]: inconclusive: 9.2 µM [inhibitor, partial curve] and inconclusive: 18.4 µM [inhibitor, partial curve, poor fit]
- Potency [9]: inconclusive: 23.3 µM [inhibitor, single point]

Structure (SMILES): CCOc1ccc2c(c1)C(C)=CC(C)(C)N2
- Potency [1]: inconclusive: 35.5 µM [inhibitor, single point]
- Potency [2]: inconclusive: 35.5 µM [cytotoxic, single point]

Structure (SMILES): CNCCC(Oc1ccccc1OC)c1ccccc1 (configuration not stated)
- Potency [1]: inconclusive: 59 µM [inhibitor, single point]
- Potency [8]: inactive
